Laboratory results: the supplement of paper PMC3334620
The full ranking holds about 33,000 sequences; the median of “E-score (-0.5 to 0.5)” is about -0.032, and the highest 2% start at about 0.36. This is one part of the list.

Each sequence was assayed against T1, Sko1 (UniProt Q02100) (assay: PBM E-score (8-mer binding enrichment) (E-score (-0.5 to 0.5)); higher = stronger / more preferred TF binding; most listed sequences are background and not binding sites). Details: protein concentration: 200 nM; construct: GST-full length.
T1 sequence: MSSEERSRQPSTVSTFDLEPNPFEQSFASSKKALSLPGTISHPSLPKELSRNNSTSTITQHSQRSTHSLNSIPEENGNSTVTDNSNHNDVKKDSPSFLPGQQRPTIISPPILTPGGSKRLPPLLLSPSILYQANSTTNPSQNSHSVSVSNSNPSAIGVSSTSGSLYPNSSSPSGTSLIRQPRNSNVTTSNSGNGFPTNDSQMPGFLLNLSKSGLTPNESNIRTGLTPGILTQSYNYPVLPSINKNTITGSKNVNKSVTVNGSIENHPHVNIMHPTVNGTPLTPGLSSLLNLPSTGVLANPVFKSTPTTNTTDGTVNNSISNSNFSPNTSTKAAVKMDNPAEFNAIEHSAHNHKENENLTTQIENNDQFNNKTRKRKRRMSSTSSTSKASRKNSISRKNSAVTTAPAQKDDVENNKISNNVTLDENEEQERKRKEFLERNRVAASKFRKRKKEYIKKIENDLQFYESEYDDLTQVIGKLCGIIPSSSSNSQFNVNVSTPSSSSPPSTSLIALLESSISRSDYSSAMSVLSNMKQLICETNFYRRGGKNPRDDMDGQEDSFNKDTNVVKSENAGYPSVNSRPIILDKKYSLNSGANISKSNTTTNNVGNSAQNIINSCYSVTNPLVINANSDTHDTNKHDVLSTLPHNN
In short: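 Yeast transcription factors carrying a GST tag, as full-length proteins or DNA-binding domains, were produced by PURExpress in vitro transcription/translation. About 100-200 nM protein was applied to universal all-10-mer Agilent arrays, double-stranded by primer extension on fresh or once-stripped slides. Bound protein was detected with fluorescent anti-GST, and scans were normalised with masliner. The Universal PBM Analysis Suite gave each ungapped eight-base word, pooled with its reverse complement, an E-score, a modified Wilcoxon-Mann-Whitney statistic.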

Row | Sequence | PBM E-score
1 | CATTTATC | 0.127
2 | AACTCCCT | 0.00872
3 | AAGCGGAG | -0.235
4 | CTCCGTAA | 0.0488
5 | CGCGACAG | -0.21
6 | CGCACAGA | -0.0087
7 | CCCATCTC | -0.301
8 | TGAACTAA | 0.21
9 | AATGTACC | -0.0961
10 | CGTTTCCC | 0.0898
11 | CCTACTCA | -0.15
12 | GGATAACC | -0.277
13 | CTCGAGAG | -0.107
14 | AAGTTATC | 0.163
15 | GACCTGAC | -0.13
16 | ACAGTGAA | 0.111
17 | AGAGGGCG | -0.189
18 | GTAGGAGA | -0.131
19 | AAAGACAG | 0.0482
20 | GGCATAAA | -0.0292
21 | CCCAGTAG | -0.0521
22 | AGCCCCTA | -0.306
23 | GAGGCCCA | -0.268
24 | GAGATCGC | -0.0813
25 | ACGGTGAG | -0.132

Row | Sequence | PBM E-score
26 | CCATGGTA | 0.0201
27 | CATCCTGA | 0.0812
28 | CCCCCAAA | -0.296
29 | CCTCTGAG | -0.285
30 | TACCGCAA | 0.154
31 | ACACGTTG | 0.188
32 | ACATCCCC | -0.0506
33 | ATGCCCCG | -0.335
34 | AGAAACGA | 0.0679
35 | CCTAAAGA | -0.0295
36 | AGTGGCTA | -0.0564
37 | ACGAACAC | 0.0924
38 | TGGAAACA | 0.0344
39 | GAGATTCA | -0.109
40 | GTAATCGA | 0.3
41 | TATTATCA | 0.203
42 | CAATGACG | 0.486
43 | AGGCCTTA | -0.16
44 | ATGTAAGC | 0.0583
45 | TCTAATCA | 0.193
46 | CATGCTTA | 0.0146
47 | CTACGTAG | 0.449
48 | AAGCGTCT | -0.326
49 | GGATTTTA | 0.106
50 | AAATCCTG | 0.00117

Row | Sequence | PBM E-score
51 | CACCGTAC | -0.071
52 | CGGAACTC | -0.229
53 | ACTATCAA | 0.0225
54 | CCAGCCGA | -0.29
55 | ACAAGCGG | -0.209
56 | ATGAGAAC | -0.0458
57 | ATCATGAC | 0.407
58 | AATAGACC | -0.189
59 | GATGTCAC | 0.306
60 | ACCGTAAT | 0.201
61 | AAGATCTT | 0.00357
62 | CGGCGTCA | 0.241
63 | CTTTTTAA | 0.112
64 | CTCTGCAG | -0.183
65 | CAACTATG | 0.0593
66 | CGATTTCA | -0.0131
67 | CAGGACTA | -0.147
68 | CCCTTGAC | -0.237
69 | CGTTTCCA | 0.172
70 | CTCGTTTA | 0.0316
71 | CTAGGGCC | -0.18
72 | CCGATCAC | -0.0145
73 | TAAACCGA | -0.162
74 | CGTGGGGA | 0.0768
75 | AGGGCCAT | -0.112

Row | Sequence | PBM E-score
76 | GTTCGTCA | 0.367
77 | AGCCCTGC | -0.198
78 | AACGGCTT | -0.317
79 | GCAGGTGA | 0.0519
80 | CTCATGTC | 0.00709
81 | AGCCATGG | -0.169
82 | ATCGGTTC | -0.196
83 | AGCCTTCC | -0.17
84 | TACGGCTA | -0.0295
85 | CAGATGAG | -0.0677
86 | GGGGCCAA | -0.158
87 | AGAGCTGG | -0.228
88 | GGAGCCCA | -0.272
89 | GACTGTAA | 0.0192
90 | GCCTTTGA | -0.141
91 | ACTTAGGA | -0.00398
92 | GTAGTTAA | 0.196
93 | AGCTCCGA | -0.0948
94 | CGGGCCCG | 0.0314
95 | CCGCTAAG | -0.182
96 | AGTAGATG | 0.109
97 | CAGGCCAC | -0.133
98 | CAGACGCG | 0.0181
99 | GGGAGTAA | -0.0522
100 | GTGACACA | 0.145

Row | Sequence | PBM E-score
101 | CTATTCAA | 0.0384
102 | AGGGGTAC | -0.106
103 | ACCGGGAA | -0.0534
104 | AGCACGCG | 0.204
105 | AGCTTGGC | -0.24
106 | ACTCATTG | 0.0239
107 | GTAGCCCA | -0.0393
108 | GCAGGGGA | -0.299
109 | AGCCTGGC | -0.277
110 | CGGAACGC | -0.171
111 | CGGACCTC | -0.237
112 | GCTATAGA | -0.0939
113 | CCGGAGTC | -0.114
114 | CGAGACTA | 0.179
115 | CGCTTGGC | -0.0644
116 | AGTTTAAC | 0.0741
117 | GATGCGGC | -0.214
118 | AGTAGACC | -0.183
119 | CTGCCTGC | -0.262
120 | CACCCCTA | -0.0226
121 | CACCGCCG | -0.307
122 | CAATATGA | 0.299
123 | ATACCCTA | 0.0013
124 | AATCTCTA | 0.0999
125 | CGTTGCAA | 0.137

Row | Sequence | PBM E-score
126 | GCTAAGAC | 0.107
127 | CTGTATCC | -0.166
128 | CAAGCTCG | -0.0275
129 | ATAAACGC | 0.181
130 | CCGTTGGC | -0.191
131 | CCTCCGGA | -0.336
132 | GTGTTTTA | 0.211
133 | AACGAGGT | -0.0133
134 | CCGAGCAG | -0.118
135 | AACACCAG | -0.0665
136 | ATTAACCA | -0.0697
137 | AACTGGTA | -0.217
138 | TTTCAAAA | 0.253
139 | TAGGGGGA | -0.251
140 | AGTACACT | 0.02
141 | GTTCCGAA | 0.0442
142 | TCAGCAGA | -0.157
143 | CTATATTC | 0.11
144 | CTAATGGA | -0.158
145 | ACGAGGCT | 0.0826
146 | CCCCGATC | -0.386
147 | GGGCATGA | -0.29
148 | GTCCCTCA | -0.256
149 | CGGTCTCA | -0.236
150 | GTCAAGCA | -0.0917

Row | Sequence | PBM E-score
151 | AGTTAAAT | 0.077
152 | ATTCAACC | -0.122
153 | TAAGTGGA | 0.0718
154 | AGTCGCTG | -0.202
155 | ATCTCCAA | -0.102
156 | CCGGAAGC | -0.193
157 | ACAGTAAG | 0.118
158 | CTACAATA | 0.0315
159 | TAACTGCA | 0.0898
160 | CGCTCGTA | 0.0208
161 | AAGTGAGA | -0.122
162 | TAGCGGGA | -0.23
163 | GCTACAAC | -0.226
164 | ATTCTCTC | 0.0175
165 | ATCATCAA | 0.149
166 | TCGATGAA | 0.017
167 | GAGACGAA | -0.0289
168 | CGTGTTCC | 0.0601
169 | CGAGACCC | -0.17
170 | CTTCGTTC | -0.123
171 | GCGTCTCC | -0.116
172 | ATAATGAT | 0.278
173 | GAAAAAAC | 0.201
174 | CTTTCTCA | 0.168
175 | AGGTGCCA | -0.0356

Row | Sequence | PBM E-score
176 | AGATGGAG | -0.163
177 | CTTGATGC | -0.116
178 | GAGTAGGC | -0.259
179 | CACCTGGC | -0.0659
180 | ATACGGTA | 0.255
181 | ATACCACA | 0.056
182 | GCGGTAGC | -0.198
183 | ACCCAACC | -0.119
184 | TCGGCAGA | -0.18
185 | AAGAACTT | 0.0882
186 | CCAATCTC | -0.09
187 | ACCTAACC | 0.201
188 | CCAAATAA | 0.209
189 | GTATCTTA | 0.21
190 | ATGGTATG | -0.135
191 | ACATGACA | 0.217
192 | AAATCAAG | 0.122
193 | ACCGCTTC | -0.221
194 | CCAGGTGA | -0.0328
195 | AGGGGGAC | -0.287
196 | AGAGTGTG | -0.0999
197 | ACAGTTAG | -0.2
198 | GACTCGTA | 0.0636
199 | ACACATAG | 0.0102
200 | CACTATGG | -0.129

Row | Sequence | PBM E-score
201 | CTTTACGC | 0.35
202 | CAATCCAG | -0.158
203 | CAAAGCGG | -0.189
204 | AGCGTCAT | 0.445
205 | TCTGACAA | 0.0457
206 | CCGTTCCA | -0.184
207 | CGCAACTA | 0.146
208 | AGCTATTA | 0.145
209 | ATAATTCA | 0.22
210 | GAAGGCGC | -0.204
211 | GAGCCTAA | -0.116
212 | CGTTAACG | 0.137
213 | CAAGAACC | 0.2
214 | TGCCGTAA | 0.159
215 | AAAGACCG | -0.106
216 | CCGACCTA | 0.0614
217 | GAAACTGA | -0.0418
218 | GCACTCCC | -0.143
219 | ATCGAGAT | -0.05
